Experimental findings from ChEMBL document CHEMBL4888484, “Replenishing the malaria drug discovery pipeline: Screening and hit evaluation of the MMV Hit Generation Library 1 (HGL1) against asexual blood stage Plasmodium falciparum ,using a nano luciferase reporter read-out” (2022) are described below.

Molecules are shown by their SMILES. About 540 (0.36%) of roughly 150,000 compounds showed an effect of 50% or more. This is one part of the list.

For the experiment, the system named is Plasmodium falciparum. In words: Primary screen in NF54 nanoGlo assay, in single point, at 2uM, 72h; a lower Z score goes with more inhibition. The class given is functional, Erythrocyte. The settings on record: timepoint 72 hour.
`Cc1nnc(C(=O)N[C@H](C)CC2CCCCC2)s1`: the “% Inhibition” value is recorded as -20% and the Z score stood at 2.06.
For `CN(Cc1ccc2c(c1)OCO2)C(=O)c1ccsc1` the same measures were -14% and 1.44.
The corresponding values for `CCn1c(C)cc(C(=O)N2CCCC[C@@H]2CN)c1C` are 3% and -0.37.
For `COCCOC[C@H](OC(=O)c1ccc(C#N)cc1)C(C)(C)C` the same measures were 18% and -2.3.
For the compound `CC(C)Nc1ncc(C(=O)N2CCN(c3nccs3)CC2)cn1`, the “% Inhibition” value was -14% and the Z score was 1.28.
For `CCC1CC(Nc2cccc(C(=O)O)n2)CCO1` (stereo not given) the same measures were 3% and -0.23.
For `CCCN(CCC)S(=O)(=O)N1CCC[C@H](c2ccncc2)CC1` the same measures were 0% and -0.04.
Take `CCCn1cc(CNCC(c2cccs2)N2CCOC(C)C2)cn1` (stereo not given): the “% Inhibition” value was -8% and the Z score turned out to be 0.71.
For `O=C(C[C@H]1COCCN1Cc1cnc2ccccn12)c1ccco1` the same measures were 3% and -0.44.
For `CC(C)Cc1ncc2c(n1)CN(CCC(=O)Nc1ccsc1C(=O)O)C2` the same measures were 2% and -0.28.
`Cc1ccc(OCCC(=O)N2CC[C@@H](N)C2)c(C)c1`: the “% Inhibition” value was -10% and the Z score is listed as 1.5.
As for `O=C(NCCN1CCCC1=O)c1coc(COc2ccc(F)cc2)n1`, the “% Inhibition” value stood at 1% and the Z score was -0.19.
For `Cc1cccc(N(C)C(=O)[C@H](C)n2nc(C)c3c(C)onc3c2=O)c1` the same measures were -7% and 0.73.
On to `COc1ccccc1CC(=O)N1CCC(c2nc(C(=O)N3CCOCC3)c(C)o2)CC1`, for which the “% Inhibition” value is reported as -9% and the Z score was found to be 1.61.
For `O=C1N(Cc2ccc(F)c(F)c2)CCC[C@@]1(O)CNC1(c2ccccc2)CC1` the same measures were 3% and -0.3.
`O=C(c1c[nH]nc1-c1ccccc1)N1CCCC1`: the “% Inhibition” value is -4% and the Z score is reported as 0.84.
The corresponding values for `COc1cccc(-c2ccc(N3CCCN(C(=O)CN(C(=O)CC(C)C)C4CC4)CC3)nn2)c1` are -17% and 1.48.
On to `O=C1CCCCN1CCCc1ncnn1-c1cccc2c1CCC2`, for which the “% Inhibition” value is listed as -13% and the Z score is reported as 1.74.
As for `C=C1C(C(=O)Nc2ccc(C(C)(C)C)cc2)C1C(=O)Nc1ccc(C(C)(C)C)cc1` (stereo not given), the “% Inhibition” value was 27% and the Z score is recorded as -3.64.
For `O[C@H]1CCN(c2cc(Oc3ccccc3Br)ncn2)C1` the same measures were 4% and -0.5.
`COc1cccc(C(N)=O)c1OCC(=O)NC(C)C`: the “% Inhibition” value is reported as 37% and the Z score was -4.73.
Consider `O=C1COc2c(cc(C(F)(F)F)cc2NC(=O)NCCc2cccc(Cl)c2)N1`, for which the “% Inhibition” value is listed as 0% and the Z score was 0.06.
Consider `COc1cccc(C(=O)OCC2(CC#N)CC2)c1`, for which the “% Inhibition” value worked out at 0% and the Z score is listed as -0.06.
With `COc1cccc(CN2CC[C@H](c3nc(N(C)C)ncc3C(=O)NC(C)C)C2)n1`, the “% Inhibition” value was 1% and the Z score is recorded as -0.16.
The corresponding values for `Cc1cnc2c(Cl)c(C(=O)NC[C@@H]3COc4ccccc4C3)nn2c1` are 1% and -0.26.
For `Cc1nc2c([nH]1)CN(Cc1scnc1C)CC2` the same measures were 0% and -0.02.
The corresponding values for `N#CCC[C@H](C#N)CN1C(=O)NC2(CCCCCCC2)C1=O` are -7% and 1.05.
On to `Cc1ccccc1-n1ncc([C@H](C)NC(=O)c2ccc(-n3cnnn3)cc2)c1C`, for which the “% Inhibition” value was -8% and the Z score worked out at 0.96.
For `CC(C)(C)OC(=O)N1CCc2c(ccc(NC(=O)CCCN3CCOC3=O)c2F)C1` the same measures were -9% and 1.55.
The corresponding values for `Cc1csc(CN(C)c2nccc(N3CC[C@H](O)C3)n2)n1` are -6% and 1.02.
In the case of `CN(C(=O)C1CCCC1)c1nc(CNC(=O)C2CCCC2)cs1`, the “% Inhibition” value is given as -6% and the Z score is listed as 0.58.
For `Cc1cc(NC(=O)CN2C[C@H](C)c3ccccc32)no1` the same measures were -9% and 1.05.
The corresponding values for `CCc1cc(CC(=O)N2CCC(c3nnnn3C)CC2)n(C)n1` are 3% and -0.53.
On to `O=C(Cn1ccnc1[C@H](O)c1ccccc1)NC1CCCCC1`, for which the “% Inhibition” value is -2% and the Z score stood at 0.27.
For `CCOc1ccnc(N[C@H]2CC=CC[C@@H]2C(N)=O)n1` the same measures were -5% and 0.83.
The corresponding values for `Cn1cc(CCC(=O)N2C[C@@H]3CC[C@H]2CN(Cc2cscn2)C3)cn1` are -13% and 1.19.
Regarding `COc1ccccc1CNC(=O)[C@H]1CN(C(=O)c2cccs2)CC12CCCCC2`, the “% Inhibition” value worked out at 34% and the Z score is -3.8.
The corresponding values for `Cc1cc(C(=O)N2CCNC(=O)c3c(C)cccc32)c(C)o1` are 0% and -0.04.
The corresponding values for `Cc1cnc(C2CCN(Cc3cccs3)CC2)n1[C@H](C)CO` are -10% and 0.9.
Take `CCOCCC1(CNC(=O)[C@@H]2CC=CCC2)CCC1`: the “% Inhibition” value is -9% and the Z score was 1.4.
The corresponding values for `O=S(=O)(Nc1cccc2[nH]ccc12)c1ccc2[nH]nnc2c1` are 28% and -3.19.
The corresponding values for `COc1cccc(-c2nc3n(c2C(=O)Nc2cccc(Cl)c2)CCS3(=O)=O)c1` are 40% and -5.4.
The corresponding values for `Cc1ccc(N2CCCN(Cc3ccc(Cl)c(Cl)c3)C2=O)c(NS(=O)(=O)c2cccc(Cl)c2)c1` are -7% and 0.97.
For `Cc1c([C@@H]2CC(=O)Nc3cc(OCC(=O)O)ccc32)oc2ccccc12`, the “% Inhibition” value turned out to be 3% and the Z score is recorded as -0.65.
For `CC(=O)NCCCN(C)C(=O)c1cccc(Br)c1C` the same measures were -9% and 1.52.
For `O=C(Nc1ccc2c(c1)OCO2)C1CCN(C(=O)c2ccc(Cl)c(N3CCCC3=O)c2)CC1` the same measures were 33% and -3.7.
The corresponding values for `COc1ccc(/C=C/c2nc(-c3ccc(N4CCOCC4)cc3)no2)cc1` are 9% and -1.6.
On to `CCOC(=O)c1cccnc1N1CCOC2(CCC2)C1`, for which the “% Inhibition” value was -8% and the Z score stood at 0.84.
For `Cc1ccc(N[C@H]2CCC[C@@H](C(=O)N3CCNC(=O)C3)C2)nc1` the same measures were -22% and 2.8.
For `O=C1NC2(CCCC2)C(=O)N1C[C@H](O)COc1cccc2ccccc12` the same measures were 3% and -0.59.
Regarding `CCOC(=O)N1CCC(NC(=O)c2c(-c3ccccc3Cl)noc2C)CC1`, the “% Inhibition” value is listed as -9% and the Z score is on record as 0.76.
Turning to `O=C(c1ccccc1Cl)N(Cc1cccc(Cl)c1)[C@H]1CCS(=O)(=O)C1`, the “% Inhibition” value is on record as -7% and the Z score turned out to be 1.25.
The corresponding values for `CCn1cc(C(=O)NCCCOc2cccnc2)cn1` are -15% and 1.78.
Take `COC1CCN(c2nnc(C3CCOCC3)n2C)CC1`: the “% Inhibition” value is on record as -17% and the Z score amounted to 2.23.
Turning to `COc1ccc2c(n1)N(C(=O)[C@H]1OCC[C@H]1Cn1cccn1)CC2`, the “% Inhibition” value is 2% and the Z score is -0.36.
The corresponding values for `O=C1C[C@H](N2CCN(Cc3ccccc3)CC2)C(=O)N1Cc1ccccc1` are 0% and -0.02.
The corresponding values for `Cn1ccnc(OC2CCCCC2)c1=O` are 7% and -0.94.
`CC(C)[C@@H]1C[C@@H](Cc2nc(C3(S(C)(=O)=O)CC3)no2)c2ccccc21`: the “% Inhibition” value is listed as 0% and the Z score is given as 0.01.
The corresponding values for `NS(=O)(=O)c1ccc(-n2nc(COc3ccccc3)nc2C2CC2)cc1` are -8% and 1.47.
The corresponding values for `O=C(NCCc1nnc2ccccn12)c1ccc2c(c1)OCCO2` are -19% and 2.75.
For `CN(C)c1cnc(-n2cc(NC(=O)Nc3cccc(C(F)(F)F)c3)cn2)nc1` the same measures were -5% and 0.74.
Take `CN1CC(=O)N[C@@H](c2ccc(Cl)cc2)C1=O`: the “% Inhibition” value was determined as 29% and the Z score is on record as -3.69.
For `Cc1csc(CNC(=O)CCC(=O)Nc2ccc3c(c2)CCC3)n1` the same measures were -18% and 1.87.
The corresponding values for `COc1c(C)cnc(CN2CCC(N(C)CCc3scnc3C)CC2)c1C` are -9% and 1.21.
The corresponding values for `Cc1ccc(-n2nc(C(=O)NCc3ccccn3)c(=O)n(Cc3ccccc3Cl)c2=O)cc1` are 3% and -0.33.
For `Cc1cc(C)nc(CCNC(=O)c2cc(COc3cncc(Cl)c3)on2)n1`, the “% Inhibition” value is recorded as -2% and the Z score was 0.21.
The corresponding values for `CN(Cc1nccn1C)C(=O)NC(C)(C)C` are -4% and 0.69.
For `OCCc1ccc(-c2cc(NCc3cccnc3)nc3[nH]ccc23)cc1` the same measures were -8% and 0.86.
The corresponding values for `O=c1n(-c2ccccc2)cc(-c2ccccc2)n1-c1ccccc1` are -14% and 1.7.
Consider `Cn1cc(NS(=O)(=O)c2cnn(C3CCC3)c2)c(-c2ccco2)n1`, for which the “% Inhibition” value stood at 2% and the Z score was -0.44.
For the compound `CC(C(=O)N(CC(O)CC(C)(C)C)C1CCN(C)CC1)C1CC1` (stereo not given), the “% Inhibition” value stood at 1% and the Z score is -0.12.
The corresponding values for `COC(=O)c1cc(-c2ccc(C(=O)N[C@H]3CC[C@H](O)CC3)cc2)cn1C` are -7% and 1.37.
For `Nc1c2c(-c3ccc(Cl)cc3)nc(N3CCCC3)nc2nn1-c1ccc(Cl)cc1` the same measures were -8% and 1.32.
For `Cc1nc(C)c(NC(=O)N2CCC[C@H]3CN(C)C[C@H]32)s1` the same measures were -3% and 0.43.
For `CC(=O)Nc1ccc(C(=O)Nc2cccc(NC3CCCC3)c2)cc1`, the “% Inhibition” value is -9% and the Z score is on record as 0.79.
For `CN1CCC(N(CCc2ccccc2)C(=O)c2cnc[nH]c2=O)CC1` the same measures were -1% and 0.27.
The corresponding values for `CC[C@H](C)NC(=O)Nc1cc(Cl)ccc1Cl` are 3% and -0.39.
The corresponding values for `COCC(=O)N[C@@H]1CN(C(=O)C2CCCCCC2)C[C@H]1c1ccnn1C` are 5% and -0.82.
In the case of `Cc1ccc(=O)n(Cc2ccn(-c3ccc(F)cc3F)n2)n1`, the “% Inhibition” value is listed as -4% and the Z score was 0.51.
For `CN(Cc1cscn1)c1cc(C2CC2)ncn1` the same measures were -8% and 1.13.
With `COC(=O)c1c(F)cccc1NS(=O)(=O)C[C@H](OC)C1CC1`, the “% Inhibition” value is -10% and the Z score is listed as 1.05.
For `CC(=O)C(C(=O)Nc1ccc(F)cc1)C(c1ccc(Cl)cc1Cl)C(C#N)C#N` (stereo not given) the same measures were -6% and 1.09.
On to `Cc1sc2ccccc2c1S(=O)(=O)N(C)Cc1cnccn1`, for which the “% Inhibition” value is reported as -6% and the Z score amounted to 0.78.
The corresponding values for `O=C(Cn1cnc2ccccc21)N1CCN(S(=O)(=O)C2CC2)CC1` are -2% and 0.26.
For `CS(=O)(=O)CCn1nnc(Cc2ccc(Cl)c(Cl)c2)n1` the same measures were 1% and -0.18.
